Reference: paper PMC12078616, “A FAN1 point mutation associated with accelerated Huntington’s disease progression alters its PCNA-mediated assembly on DNA” (Nature Communications, 2024)

Experiments:
[1] = target: T1, N-terminally truncated FAN1 R507H (trFAN1 R507H), residues 364-1017 (human, UniProt Q9Y2M0 364-1017, R507H); assay: SPR; biotinylated 113 bp homoduplex DNA on neutravidin; PCNA titrated 10 µM to 156 nM in the presence of 100 nM FAN1 (A-B-A mode); steady-state affinity and 1:1 kinetic fit; 25 °C; 25 mM HEPES pH 7.5, 125 mM KCl, 10 mM CaCl2; conditions: both partners purified
T1 construct: human FAN1, residues 364-1017, with the disease-associated variant R507H; The crystallised construct of PDB 8S5A has the same limits but also K794A and Δ510-518; source: Sf21 insect cells, baculovirus (purification text says Sf9), purified (HisTrap, Heparin Sepharose, S200 SEC); not shown: His, N-terminal, cleaved; FLAG, N-terminal, cleaved; MBP, N-terminal, cleaved
T1 sequence (looked up): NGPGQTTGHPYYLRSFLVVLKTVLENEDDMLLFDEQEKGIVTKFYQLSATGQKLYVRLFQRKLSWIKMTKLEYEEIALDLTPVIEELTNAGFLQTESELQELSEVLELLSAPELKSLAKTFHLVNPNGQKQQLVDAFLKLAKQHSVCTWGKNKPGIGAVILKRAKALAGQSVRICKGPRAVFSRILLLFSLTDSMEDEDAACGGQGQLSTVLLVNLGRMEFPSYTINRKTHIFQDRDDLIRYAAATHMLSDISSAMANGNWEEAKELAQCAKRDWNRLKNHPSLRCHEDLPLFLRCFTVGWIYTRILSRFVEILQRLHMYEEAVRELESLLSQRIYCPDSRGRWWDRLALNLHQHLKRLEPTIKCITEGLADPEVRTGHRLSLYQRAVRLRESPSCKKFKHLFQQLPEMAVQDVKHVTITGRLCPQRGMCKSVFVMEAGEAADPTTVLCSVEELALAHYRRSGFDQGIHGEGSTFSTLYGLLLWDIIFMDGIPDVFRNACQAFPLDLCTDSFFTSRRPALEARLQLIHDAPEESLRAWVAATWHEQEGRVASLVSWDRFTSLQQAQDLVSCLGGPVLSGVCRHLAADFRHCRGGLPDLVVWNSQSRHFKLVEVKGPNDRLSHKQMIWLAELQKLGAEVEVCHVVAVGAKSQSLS

[2] = target: T2, FAN1 (FANCD2-FANCI-associated nuclease 1), full-length, wild type (human, UniProt Q9Y2M0 1-1017); assay: as above; conditions: both partners purified
T2 construct: human FAN1, full length, wild type; codon-optimised synthetic gene; Tag removed with PreScission protease; also called FAN1 WT; full-length FAN1; source: Sf21 insect cells, baculovirus (purification text says Sf9), purified (HisTrap, Heparin Sepharose, S200 SEC); not shown: His, N-terminal, cleaved; FLAG, N-terminal, cleaved; MBP, N-terminal, cleaved
T2 sequence (looked up): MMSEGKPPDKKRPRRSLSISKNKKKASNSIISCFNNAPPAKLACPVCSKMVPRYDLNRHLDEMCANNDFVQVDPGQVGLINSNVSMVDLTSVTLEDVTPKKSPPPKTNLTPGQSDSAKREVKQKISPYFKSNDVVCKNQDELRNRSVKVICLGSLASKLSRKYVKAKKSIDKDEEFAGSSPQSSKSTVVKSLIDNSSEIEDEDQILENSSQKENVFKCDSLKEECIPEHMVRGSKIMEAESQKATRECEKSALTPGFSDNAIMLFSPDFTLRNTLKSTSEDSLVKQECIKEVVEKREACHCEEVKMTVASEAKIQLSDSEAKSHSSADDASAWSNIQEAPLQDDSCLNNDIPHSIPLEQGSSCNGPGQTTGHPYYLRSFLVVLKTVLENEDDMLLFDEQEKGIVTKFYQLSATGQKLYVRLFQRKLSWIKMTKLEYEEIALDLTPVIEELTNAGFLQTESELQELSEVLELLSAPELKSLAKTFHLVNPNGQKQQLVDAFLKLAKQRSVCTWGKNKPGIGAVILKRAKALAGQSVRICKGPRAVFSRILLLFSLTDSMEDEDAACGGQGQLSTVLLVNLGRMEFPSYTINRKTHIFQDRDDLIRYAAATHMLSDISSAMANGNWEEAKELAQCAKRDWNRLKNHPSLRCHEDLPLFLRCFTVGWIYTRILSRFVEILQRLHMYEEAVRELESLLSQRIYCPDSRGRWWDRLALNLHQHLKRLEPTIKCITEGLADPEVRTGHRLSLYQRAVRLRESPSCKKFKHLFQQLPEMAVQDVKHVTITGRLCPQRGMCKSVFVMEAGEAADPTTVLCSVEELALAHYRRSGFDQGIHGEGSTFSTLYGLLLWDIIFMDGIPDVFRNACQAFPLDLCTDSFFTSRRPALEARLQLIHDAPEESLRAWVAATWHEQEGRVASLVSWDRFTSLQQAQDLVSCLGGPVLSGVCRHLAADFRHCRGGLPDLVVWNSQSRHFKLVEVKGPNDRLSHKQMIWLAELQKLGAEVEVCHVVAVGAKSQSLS

[3] = target: T3, N-terminally truncated FAN1 (trFAN1), wild type, residues 364-1017 (human, UniProt Q9Y2M0 364-1017); assay: cell-based or functional assay
T3 sequence (looked up): T1 sequence (looked up) with H144R

[4] = target: T1, N-terminally truncated FAN1 R507H …; assay: cell-based or functional assay
FAN1 R507H, full-length [5] = target: T4, FAN1 R507H, full-length (human, UniProt Q9Y2M0 1-1017, R507H); assay: cell-based or functional assay
T4 sequence (looked up): T2 sequence (looked up) with R507H

[6] = target: T1, N-terminally truncated FAN1 R507H …; assay: MST; 10 nM Cy5-labeled 61 bp homoduplex DNA, PCNA titrated in the presence of 100 nM FAN1, in solution; 25 °C; 25 mM HEPES pH 7.5, 125 mM KCl, 10 mM CaCl2; conditions: both partners purified
[7] = target: T2, FAN1 (FANCD2-FANCI-associated nuclease …); assay: as above; conditions: both partners purified
FAN1 R507H, full-length [8] = target: T4, FAN1 R507H, full-length; assay: as above; conditions: both partners purified

B1: PCNA D232A, full-length (natural protein)
chain: not shown
notes: human PCNA, full length, with D232A; Trimer as said of PCNA in general; not measured for the mutant; source: E. coli BL21(DE3), purified (HisTrap, reverse HisTrap, S200 SEC); not shown: His (or His-AVI), N-terminal, cleaved
KD with DNA (PCNA for FAN1-bound DNA) [1]: 14 µM
KD with DNA (PCNA for FAN1-bound DNA) [2]: 3.7 µM
kcat of trFAN1 WT on 5′pG1/3′T1 dsDNA in presence of PCNA D232A (activity remains unchanged) [3]: 5.5 s⁻¹
kcat of trFAN1 R507H on 5′pG1/3′T1 dsDNA in presence of PCNA D232A (activity remains unchanged) [4]: 9.5 s⁻¹
kcat of FAN1 R507H on 5′pG1/3′T1 dsDNA in presence of PCNA D232A (only partially restored) (FAN1 R507H, full-length [5]): 2 s⁻¹
KD with DNA (PCNA for DNA in the presence of FAN1) [6]: 15.8 µM
KD with DNA (PCNA for DNA in the presence of FAN1) [7]: 1.3 µM
KD with DNA (PCNA for DNA in the presence of FAN1) (FAN1 R507H, full-length [8]): 5.1 µM

Positions count from the first letter of the chain named. Numbers in names are those of the source.
